Test results reported in PubChem BioAssay AID588453 (National Center for Advancing Translational Sciences (NCATS), 2011).
Several values for one entry are separate records, joined by “and”; a condition that tells them apart may be missing. Equal values may be shown once. About 4,000 (1%) of roughly 390,000 compounds were called active. Inconclusive means that the source gave no clear call. Such entries were picked first, then a sample of the others. The call rests on the fitted dose curve; in most records, active means well fitted inhibition curve with a large enough effect; inconclusive means small, poorly fitted or top-dose-only effect; inactive means no such curve, though single readings can be large or run the other way. Where the call is inconclusive, the potency comes from a doubtful curve fit. Where a structure was tested more than once in an assay, its records may differ in their call.

molecular target: Thioredoxin reductase 1, cytoplasmic (Rattus norvegicus) (UniProt O89049); assay: qHTS Assay for Inhibitors of Mammalian Selenoprotein Thioredoxin Reductase 1 (TrxR1): qHTS; conditions: recombinant rTrxR1, NADPH fluorescence consumption, selenite substrate; series mostly up to 114 µM; activity change, negative = inhibition: at the top concentration; further: nearly all actives have a fitted effect of over 65% in size
UniProt O89049, sequence (O89049 whole entry, looked up): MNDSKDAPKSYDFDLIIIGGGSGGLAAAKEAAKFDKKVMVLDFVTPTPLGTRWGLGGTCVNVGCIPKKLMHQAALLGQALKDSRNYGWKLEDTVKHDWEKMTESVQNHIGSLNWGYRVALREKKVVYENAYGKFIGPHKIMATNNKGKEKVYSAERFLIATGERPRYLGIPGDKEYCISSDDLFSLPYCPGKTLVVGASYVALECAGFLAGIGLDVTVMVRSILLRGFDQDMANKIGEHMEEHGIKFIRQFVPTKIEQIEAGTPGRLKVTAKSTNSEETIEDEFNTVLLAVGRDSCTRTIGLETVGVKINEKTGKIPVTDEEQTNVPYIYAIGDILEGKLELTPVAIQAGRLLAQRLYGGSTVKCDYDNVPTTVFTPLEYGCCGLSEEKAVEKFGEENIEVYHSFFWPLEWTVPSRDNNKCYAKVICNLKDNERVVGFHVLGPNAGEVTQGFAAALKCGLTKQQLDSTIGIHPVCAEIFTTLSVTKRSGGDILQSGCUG
Procedure, shortened: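 Rat TrxR1 (90 nM in the dispensed reagent) was pre-reduced with 400 uM NADPH for 5 min at room temperature, then incubated with compound for 15 min. After 400 uM selenite was added, NADPH fluorescence (Ex 340/Em 450 nm) was followed for 8 min.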
On the % scale 0 is the no-effect control and ±100 the full control effect; potency means the concentration at half of the fitted maximal effect; tags describe the fitted curve by direction and shape.

| SMILES | Potency | activity change, negative = inhibition |
| --- | --- | --- |
| N#CCSc1nc2ccc(N3CCCCC3)cc2c(=O)n1Cc1ccccc1 | inconclusive: 7.08 µM [inhibitor, full curve] |  |
| N#C/C(=N\Nc1ccc(S(=O)(=O)N2CCCCCC2)cc1)C(N)=S | inconclusive: 17.8 µM [inhibitor, partial curve, poor fit] |  |
| O=C(Cc1ccc(OCCc2ccccc2)cc1)NO |  | inactive: 19.1% |
| COc1ccc(CCNC(=S)NC(=O)c2ccccc2)cc1C | inconclusive: 39.8 µM [inhibitor, partial curve] |  |
| CCc1ccc(NCc2cc3cc4c(cc3n(CC(=O)Nc3ccccc3C)c2=O)OCCO4)cc1 |  | inactive: -16.9% |
| CN(C)CCNC(=O)c1ccc(Cl)s1 |  | inactive: 2.56% |
| COC(=O)c1ccccc1S(=O)(=O)N(Cc1ccco1)Cc1cc2cc(OC)ccc2[nH]c1=O | active: 10 µM |  |
| Cc1ccc(CS(=O)(=O)c2ncc(Cl)c(C(=O)Nc3nnc(C(C)C)s3)n2)cc1 | active: 11.2 µM and active: 31.6 µM |  |
| O=C(c1ccc(N2CCNCC2)cc1)c1cccnc1 | inconclusive: 12.6 µM [inhibitor, partial curve, poor fit] |  |
| CCc1ccc(-n2nc(CO)c(C(=O)NC)n2)cc1 | inconclusive: 89.1 µM [inhibitor, single point] |  |
| CC(/C=C/c1ccco1)=N/NC(=O)C1COc2ccccc2O1 (configuration not stated) | active: 56.2 µM |  |
| O=[N+]([O-])c1cccc(CN2CCN(Cc3ccco3)CC2)c1 |  | inactive: 9.04% |
| Cc1cc(N2CCCC2)ccc1/C=N/n1cnnc1 | inconclusive: 25.1 µM [inhibitor, partial curve, poor fit] |  |
| CN1CCc2cc3c(c4c2C1CC41CCC(=NO)CC1)OCO3 (configuration not stated) |  | inactive: -13.4% |
| O=C(/C=C/c1ccc([N+](=O)[O-])cc1)NCc1cccnc1 |  | inactive: -15.7% |
| CC1(C)CC(=O)C2=C(C1)N(Cc1ccco1)C(=O)C2(O)C(F)(F)F (configuration not stated) | inconclusive: 56.2 µM [inhibitor, partial curve] |  |
| Cc1ccc(NC(=O)c2oc3ccc(S(=O)(=O)N4CCC5(CC4)OCCO5)cc3c2C)cc1Cl |  | inactive: 3.83% [at 57.1 µM] |
| C/C(=N\NC(=S)NCc1ccccc1)c1ccc(Br)cc1 |  | inactive: 14.1% [at 57.1 µM] |
| Cc1ccc(-c2cc(-c3ccccc3Cl)c(C#N)c(N)n2)o1 | inconclusive: 70.8 µM [inhibitor, partial curve] |  |
| CCOC(=O)C1=C(COC(=O)CCOc2ccccc2)NC(=O)NC1C (configuration not stated) |  | inactive: -0.159% |
| CC1=NOC(=O)/C1=C/c1ccc(O)c(Br)c1 | inconclusive: 44.7 µM [inhibitor, partial curve] |  |
| O=C1CC(Sc2ncccn2)C(=O)N1c1ccccc1C(F)(F)F (configuration not stated) | inconclusive: 70.8 µM [inhibitor, single point] |  |
| CCC(CC)C(=O)Nc1cccc(C(=O)NCc2ccco2)c1 | inconclusive: 20 µM [inhibitor, full curve] |  |
| COc1ccc(C(c2oc(CO)cc(=O)c2O)c2oc(CO)cc(=O)c2O)cc1 |  | inactive: -9.2% |
| CN1/C(=C/c2cccc[n+]2C)Sc2ccccc21 |  | inactive: 26.5% |
| C#CCN1C(=O)C(O)(c2c(C)[nH]c3ccccc23)c2ccccc21 (configuration not stated) | inconclusive: 89.1 µM [inhibitor, single point] |  |

| SMILES | Potency | activity change, negative = inhibition |
| --- | --- | --- |
| CC1(C)Cc2c(sc3[nH]c(=S)n(Cc4ccco4)c(=O)c23)CO1 | active: 50.1 µM |  |
| CC(=O)c1c(C)[nH]c(C(=O)NCc2ccccc2Cl)c1C |  | inactive: 20.2% |
| Cc1ccc2nc(-c3ccc(C)o3)c(NC3CCCC3)n2c1 | inconclusive: 44.7 µM [inhibitor, partial curve] |  |
| Cc1ccccc1CN1CCNC(=O)C1CC(=O)NC1CCCCCCC1 (configuration not stated) | inconclusive: 70.8 µM [inhibitor, single point] |  |
| COc1ccc(NC(C)=[N+](C)CCNS(=O)(=O)c2ccc(Cl)cc2)cc1 | inconclusive: 70.8 µM [inhibitor, single point] |  |
| Cc1cc(C(=O)NC(Cc2ccccc2)C(=O)O)c(C)o1 (configuration not stated) | inconclusive: 22.4 µM [inhibitor, single point] |  |
| CCCCn1nc(C(=O)Oc2ccc3c(C)cc(=O)oc3c2)c2ccccc2c1=O | active: 79.4 µM |  |
| Cc1ccc(C(=O)C2=C(O)C(=O)N(Cc3ccccc3)C2c2cccnc2)o1 (configuration not stated) | inconclusive: 15.8 µM [inhibitor, partial curve, poor fit] |  |
| CC(C)(C)NC(=O)CSc1ncnc2c1nnn2Cc1ccccc1Cl |  | inactive: -20.5% |
| COc1ccc(-c2nc(Cn3c(SCc4ccccc4F)nc4cccnc43)c(C)o2)cc1 |  | inactive: -0.923% |
| CCOc1cccc(CNc2ccc(O)cc2)c1OCc1ccc(Cl)cc1 | active: 44.7 µM |  |
| CC(=O)c1cccc(NC2c3ccccc3C(=O)N2Cc2ccco2)c1 (configuration not stated) | inconclusive: 15.8 µM [inhibitor, full curve] |  |
| CCc1cccc(C)c1NC(=O)c1ccoc1C | active: 20 µM |  |
| CCOC(=O)/C(=N\Nc1cccc(Cl)c1)Sc1nnc(-c2ccc(OC)cc2)n1C | inconclusive: 28.2 µM [inhibitor, partial curve, poor fit] |  |
| CC1CNCCN1S(=O)(=O)c1cccc2cnccc12 (configuration not stated) | inconclusive: 50.1 µM [inhibitor, partial curve, poor fit] |  |
| O=C(NCc1ccccc1Cl)c1nnc(Cc2ccc(Cl)cc2)o1 |  | inactive: -30% |
| Cc1ccc(Nc2nc(NCc3ccco3)nc3nccnc23)cc1 |  | inactive: 15.1% |
| COCc1nnc(NC(=O)C2CCN(C(=O)c3ccco3)CC2)s1 |  | inactive: 17% [at 57.1 µM] |
| COc1ccc([N+](=O)[O-])cc1NC(=O)CCNC(=O)Cn1ccc2ccccc2c1=O | inconclusive: 39.8 µM [inhibitor, single point] |  |
| COc1cc2oc3ccc(C#Cc4ccccn4)cc3c(=O)c2cc1OC |  | inactive: 10.1% |
| COc1ccc(C(O)(CCc2ccccc2)CCN2CCCCC2)cc1 (configuration not stated) | active: 8.91 µM |  |
| N#Cc1c(NC(=S)NC(=O)Cc2cccs2)sc2c1CCCCC2 | inconclusive: 25.1 µM [inhibitor, full curve] |  |
| COc1cccc(NC(=S)Nc2ccc(Br)cc2Cl)c1 | inconclusive: 15.8 µM [inhibitor, full curve] |  |
| Cc1ccc(-c2cn3cccnc3n2)cc1 | inconclusive: 39.8 µM [inhibitor, single point] |  |
| Cc1ccc(S(=O)(=O)C(CNS(=O)(=O)c2ccc(F)c(C(F)(F)F)c2)c2ccco2)cc1 (configuration not stated) | inconclusive: 2.51 µM [inhibitor, partial curve] |  |
| CC(=C/C(=O)O)/C=C/c1ccco1 | active: 28.2 µM |  |

| SMILES | Potency | activity change, negative = inhibition |
| --- | --- | --- |
| Cc1c(C)n(C)c2ccc(C(=O)NCCc3ccco3)cc12 | inconclusive: 70.8 µM [inhibitor, single point] |  |
| O=C(CC1C(=O)NCCN1Cc1cccc(F)c1)NCCCN1CCCC1=O (configuration not stated) | inconclusive: 89.1 µM [inhibitor, single point] |  |
| COc1ccc(CN2CCN(Cc3ccc4cc(F)ccc4n3)CC2CCO)c(C)c1C (configuration not stated) | inconclusive: 56.2 µM [inhibitor, single point] |  |
| CCOc1ccc2oc(=O)cc(CN3CCN(C(=O)c4ccco4)CC3)c2c1 | inconclusive: 89.1 µM [inhibitor, single point] |  |
| CCc1cc2c(-c3ccccc3)cc(=O)oc2c(CN2CCOCC2)c1O | inconclusive: 39.8 µM [inhibitor, single point] |  |
| COc1ccc(OCc2cc(C(=O)N(C)C3CCOCC3)no2)c2ccccc12 |  | inactive: 45.3% |
| Cc1occc1C(=O)NCc1ccccc1F | active: 10 µM |  |
| COc1ccc(C(=O)NC(=S)NCc2ccccc2)cc1OC | inconclusive: 50.1 µM [inhibitor, partial curve] |  |
| Cc1cccc(C(=O)NNc2ncnc3c2cnn3-c2ccc(C)c(Cl)c2)c1 |  | inactive: 2.36% [at 57.1 µM] |
| COc1ccc(Nc2nc(NN)nc(Nc3ccc(OC)cc3)n2)cc1 |  | inactive: 21.5% |
| Cc1ccc(S(=O)(=O)CCC(=O)Nc2cc(Cl)ccc2-n2cncn2)cc1 | active: 12.6 µM |  |
| CC(=O)OCON[N+]([O-])=NC(C)C | active: 15.8 µM |  |
| COc1ccc(NCc2nnc(SCC(=O)c3ccc(C)cc3)o2)cc1 | inconclusive: 39.8 µM [inhibitor, partial curve, poor fit] |  |
| Cc1ccc(-c2cc(C(=O)Nc3ccccc3C)c3ccccc3n2)o1 | inconclusive: 15.8 µM [inhibitor, single point] |  |
| CCOc1cc(/C=N/O)ccc1OCc1ccc([N+](=O)[O-])cc1 |  | inactive: 3.71% |
| COc1ccc(NC(=O)CN(C)C(=O)c2cn(-c3ccccc3)nc2-c2cccs2)cc1 |  | inactive: 9.34% |
| Cc1c(C)c2cc(Cl)c(O)c(CN3CCCCC3)c2oc1=O | inconclusive: 100 µM [inhibitor, single point] |  |
| S=C(Nc1ccc2c(c1)OCCO2)Nc1ccccc1Cl | inconclusive: 89.1 µM [inhibitor, partial curve, poor fit] |  |
| Cc1cc(C)nc(-n2nc(C)c(Sc3ccc(F)cc3)c2N)n1 |  | inactive: 17.5% |
| CCOC(=O)C1CCCN(C(=O)Cn2sc3nc(C)cc(C)c3c2=O)C1 (configuration not stated) |  | inactive: -16.7% |
| COc1ccc(C=O)cc1COc1ccc(Cl)cc1[N+](=O)[O-] |  | inactive: 13.8% [at 57.1 µM] |
| O=C(CSc1nc2cc(S(=O)(=O)N3CCOCC3)ccc2o1)Nc1c(F)cccc1F | inconclusive: 79.4 µM [inhibitor, partial curve, poor fit] |  |
| O=C(Cn1c(=O)n2nc(-c3cccc(F)c3)nc2c2ccccc21)N1CCN(c2ccc(F)cc2)CC1 |  | inactive: 18.6% [at 57.1 µM] |
| CCN1CCN(C(c2ccccc2Cl)c2c(O)cc(C)n(Cc3ccco3)c2=O)CC1 (configuration not stated) | active: 8.91 µM |  |
| c1ccc(N2CCN(c3nc(-c4ccccn4)nc4ccccc34)CC2)cc1 | inconclusive: 12.6 µM [inhibitor, partial curve, poor fit] |  |
